Structures are written as SMILES. Among all 310,000 compounds or so, about 14,000 (4.5%) showed an effect of 50% or more. Effects have a minus sign here. The list shows a part of the results.
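Also: peak tail current of the secondary pulse compared with the same well before compound.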

human ether-à-go-go-related gene (hERG) potassium channel, sequence (Q12809 whole entry, looked up): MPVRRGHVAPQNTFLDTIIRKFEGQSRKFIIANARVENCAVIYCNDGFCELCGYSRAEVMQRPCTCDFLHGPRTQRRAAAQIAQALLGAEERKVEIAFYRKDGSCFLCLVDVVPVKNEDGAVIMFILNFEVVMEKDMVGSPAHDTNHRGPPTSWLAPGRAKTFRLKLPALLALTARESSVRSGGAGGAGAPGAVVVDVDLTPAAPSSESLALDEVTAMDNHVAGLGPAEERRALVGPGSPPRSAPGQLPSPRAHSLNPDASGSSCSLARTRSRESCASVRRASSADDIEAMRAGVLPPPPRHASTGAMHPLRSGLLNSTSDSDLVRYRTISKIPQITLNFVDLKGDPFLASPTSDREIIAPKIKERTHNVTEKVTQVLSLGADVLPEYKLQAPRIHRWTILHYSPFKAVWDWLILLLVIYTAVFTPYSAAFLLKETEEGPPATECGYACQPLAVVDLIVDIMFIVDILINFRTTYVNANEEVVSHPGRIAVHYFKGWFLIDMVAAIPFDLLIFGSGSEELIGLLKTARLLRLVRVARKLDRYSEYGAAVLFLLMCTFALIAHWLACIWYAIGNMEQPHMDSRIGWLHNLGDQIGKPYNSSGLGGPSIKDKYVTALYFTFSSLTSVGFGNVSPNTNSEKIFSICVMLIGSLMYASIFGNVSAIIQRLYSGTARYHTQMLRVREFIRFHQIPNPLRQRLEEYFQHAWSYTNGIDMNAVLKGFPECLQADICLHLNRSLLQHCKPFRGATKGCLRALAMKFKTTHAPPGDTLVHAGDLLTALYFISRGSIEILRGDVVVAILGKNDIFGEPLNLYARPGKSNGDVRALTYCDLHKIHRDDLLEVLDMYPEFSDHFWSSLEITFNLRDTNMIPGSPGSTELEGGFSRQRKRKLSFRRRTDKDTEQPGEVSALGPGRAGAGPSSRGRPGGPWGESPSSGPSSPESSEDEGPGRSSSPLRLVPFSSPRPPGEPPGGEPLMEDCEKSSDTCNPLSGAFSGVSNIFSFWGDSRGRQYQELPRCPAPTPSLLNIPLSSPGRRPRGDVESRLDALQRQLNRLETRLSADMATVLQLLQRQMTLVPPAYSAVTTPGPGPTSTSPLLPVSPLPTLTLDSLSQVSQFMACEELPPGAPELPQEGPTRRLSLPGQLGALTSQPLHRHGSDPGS

This experiment has as its target human ether-à-go-go-related gene (hERG) potassium channel (human, UniProt Q12809). Briefly: primary screen, population patch clamp on CHO cells stably expressing hERG.
Consider `COCCNC(=O)COc1ccc(C)c(C)c1`, for which the “hERG current change (%, negative = inhibition) at 10uM” value is on record as 3.36%. As for `CC(C)c1ccc(N(CC(=O)N/N=C/c2ccc(OC3CSC3)cc2)S(=O)(=O)c2ccccc2)cc1`, the figure is 12.8%. As for `O=C(CSc1cccc2cccnc12)N/N=C/c1ccc(O)cc1`, the figure is -23.1%; as for `Cc1ccc(CNC(=O)CCCNC(=O)c2ccc(Cl)cc2)n1C`, 2.05%; as for `O=C(NNC(=S)Nc1ccc(Br)cc1)c1cccnc1`, 19.4%.

For `CCOC(=O)CSc1nnc(CNC(=O)c2ccc([N+](=O)[O-])cc2)n1C`, the “hERG current change (%, negative = inhibition) at 10uM” value is on record as -16.9%.

Consider `CCOC(=O)N1CCN(C(=O)COc2cccc3c2CCN(Cc2ccccc2F)C3=O)CC1`, for which the “hERG current change (%, negative = inhibition) at 10uM” value is given as -31.4%. As for `COC(=O)C[C@H]1c2cc(F)cc(F)c2S(=O)(=O)N1C1CCN(Cc2ccccc2)CC1`, the figure is -32%; as for `O=C(Nc1ccc(NC(=O)C23CC4CC(CC(C4)C2)C3)cn1)c1ccco1`, 13.7%. `CC(C)N1CCN(c2ccc(OC[C@H]3CO[C@](Cn4cncn4)(c4ccc(Cl)cc4Cl)O3)cc2)CC1`: the “hERG current change (%, negative = inhibition) at 10uM” value is on record as -34.1%. On to `CC(C)(CO)NC(=O)CC1C(=O)NCCN1CC(c1ccccc1)c1ccccc1` (stereo not shown), for which the “hERG current change (%, negative = inhibition) at 10uM” value was determined as 20.7%. Under `O=C(Cc1ccccc1)N[C@@H](Cc1ccccc1)c1nc2ccccc2[nH]1` stands 1.13%. For the molecule `Cc1cc(C)nc(-n2nc(C)c3c(C(F)F)cc(C)nc32)n1`, the “hERG current change (%, negative = inhibition) at 10uM” value was 15.3%. As for `O=C(NCCC(=O)N(CCc1ccccc1)Cc1ccccc1)c1ccc(Br)cc1`, the figure is -44.9%. As for `CCOC(=O)CSc1nnc(-c2nnc(SCC(=O)OCC)n2CC)n1CC`, the figure is -16.9%; as for `Cc1cc(C(=O)NC(C)C)on1`, 13.6%.

Consider `Cc1cc2[nH]c(=O)c(=O)[nH]c2cc1S(=O)(=O)Nc1cccc(F)c1`, for which the “hERG current change (%, negative = inhibition) at 10uM” value is listed as -8.21%. Take `CCC(C)(C)NC(=O)C(c1ccc(OC)cc1)N(C(=O)CCC(=O)Nc1cc(C)on1)c1cc(OC)ccc1OC` (stereo not shown): the “hERG current change (%, negative = inhibition) at 10uM” value was -1.9%. As to `Cc1cccc(NCc2cc(Cl)ccc2O)n1`, the “hERG current change (%, negative = inhibition) at 10uM” value is -3.83%. As for `O=C1C2C3C=CC([C@@H]2C(=O)N1c1nccs1)C31CC1` (stereo partly shown), the “hERG current change (%, negative = inhibition) at 10uM” value was 3.24%. Regarding `COC(=O)[C@H](CCSC)NC(=O)Cn1ccc(N)nc1=O`, the “hERG current change (%, negative = inhibition) at 10uM” value is listed as -3.29%. `O=C(Cn1c(=S)[nH]c2ncccc2c1=O)NCCc1ccccc1`: the “hERG current change (%, negative = inhibition) at 10uM” value is 18.9%.

Turning to `CCCCN(C)C(=O)c1nc2ccccn2c1CN1CCN(C/C=C/c2ccccc2)CC1`, the “hERG current change (%, negative = inhibition) at 10uM” value was -83.9%. In the case of `Cc1cc(C)c(S(=O)(=O)N/N=C/c2ccc([N+](=O)[O-])o2)c(C)c1`, the “hERG current change (%, negative = inhibition) at 10uM” value worked out at 16.8%.

Take `OCCN(Cc1nc(-c2ccc3c(c2)OCO3)no1)Cc1cccs1`: the “hERG current change (%, negative = inhibition) at 10uM” value is reported as 7.32%. Take `CCOc1ncnc2c1sc1nc(C)cc(C)c12`: the “hERG current change (%, negative = inhibition) at 10uM” value was 16%. As to `Cc1ccc(CONC(=O)c2ccc([N+](=O)[O-])cc2)cc1`, the “hERG current change (%, negative = inhibition) at 10uM” value is -9.26%. As for `Cc1ccc(C2=NS(=O)(=O)N(C)C(C(=O)Nc3cc(C)n(CC(=O)N4CCC(C)CC4)n3)=C2)cc1`, the “hERG current change (%, negative = inhibition) at 10uM” value is -34.8%. As for `O=C(C[n+]1cc(-c2ccc(Cl)c(Cl)c2)n2c1CCC2)N1c2ccccc2Sc2ccccc21.[Cl-]`, the figure is -37.8%; as for `CC(C)(C)c1ccc(/C([O-])=C(/C(=S)NCc2ccco2)[n+]2ccccc2)cc1`, 6.63%; as for `CN(C)c1ccc(/C=N/N2CCN(c3ccccn3)CC2)cc1`, 5.6%. Turning to `Cl.O=[N+]([O-])c1ccccc1OCC(O)CNC1CCCC1` (stereo not shown), the “hERG current change (%, negative = inhibition) at 10uM” value was -2.63%. Consider `Cc1ccc2c(C)c(C(=O)NCc3ccc(S(N)(=O)=O)cc3)oc2c1C`, for which the “hERG current change (%, negative = inhibition) at 10uM” value turned out to be 17.7%. For `O=C(c1ccccc1)c1sc(N2CCCCCC2)nc1-c1ccccc1`, the “hERG current change (%, negative = inhibition) at 10uM” value was determined as 0.269%.

As for `O=C1[C@H]2[C@@H](c3ccc(Cl)cc3)N3C(=O)N(c4cccc(Cl)c4)C(=O)[C@@]3(Cc3ccccc3)[C@H]2C(=O)N1C1CCCCC1`, the “hERG current change (%, negative = inhibition) at 10uM” value was -2.02%.

Consider `COc1ccc(CNC(=O)COC(=O)c2[nH]c(C)c(C(C)=O)c2C)cc1OC`, for which the “hERG current change (%, negative = inhibition) at 10uM” value was found to be 1.28%.

Consider `Cn1c(N)c(C(=O)COC(=O)C(Cc2ccccc2)NC(=O)c2ccccc2)c(=O)n(C)c1=O` (stereo not shown), for which the “hERG current change (%, negative = inhibition) at 10uM” value was -44.2%. For the molecule `O=C(CSc1nnc(-c2ccncc2)o1)NCc1ccccc1`, the “hERG current change (%, negative = inhibition) at 10uM” value is listed as -9.8%. Consider `c1ccc(C2=NNC(c3ccco3)=Nc3ccccc32)cc1`, for which the “hERG current change (%, negative = inhibition) at 10uM” value was determined as 0.173%.

Turning to `O=C(CN(C(=O)CCC(=O)Nc1nccs1)c1cccc(F)c1)NCCc1ccccc1`, the “hERG current change (%, negative = inhibition) at 10uM” value is given as -38.5%.

Take `N#CCCN(Cc1cccnc1)C(=O)Nc1ccc(Cl)c(Cl)c1`: the “hERG current change (%, negative = inhibition) at 10uM” value was -26%. With `CC1CCCN(C(=O)CCc2nnc(-c3ccc4c(c3)OCO4)o2)C1` (stereo not shown), the “hERG current change (%, negative = inhibition) at 10uM” value is -4.43%. Regarding `COC(=O)c1cc2oc3ccccc3c2n1Cc1ccccn1`, the “hERG current change (%, negative = inhibition) at 10uM” value is -8.74%.

(Values after PMC4336329 (PLoS ONE, 2015).)
